# Measured values taken from the supplement of paper PMC8728848.
# The other results are listed elsewhere or left out.
# B1: SP15308A-bot-339-19-339 (Bacteroides ovatus) (protein)
# chain: ACNNEWEDEQYEQYISFKSPIPAGGEGVTDIYVRYKEDGKVTYRLPIVVSGSTTNTLDREVHIAVDKDTLETLNIERFSIHRPGLWYTALEEDKYDFPKTVHISAGSSVEQLNIDFNLQGIDMLEKWVLPLTIVDDPSYNYKSHPRKNYAKALLRVIPFNNYSGSYTSSAMKVYTYINGKPDTNARTANKRTGYVINDNTVFFYAGLISEDLDKEVREKYKINVHFNEDGTLHMEQGDPTNKMKFELIGTPTYSKTSVMDATRPYLERRYVQIMFEYDFEDFSYGGNGVDVIPIKYKVEGSMTLQRNINTQIPDEDQQIEW
# Legend:
# Assay in all cases: glycan array binding signal (z-score within array); higher = stronger binding
# Details in all cases: glycan notation: IUPAC condensed, linker removed
# [1] = target: Fuc(a1-2)[Gal(a1-4)]Gal(b1-4)GlcNAc
# Method in brief: (§1)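 Glycan array binding is given as a within-array Z-score, which can be read as non-binding when negative. The arrays, 3228 of them, came from the Consortium for Functional Glycomics database and were retained only where the protein sequence was available. Z-scores were averaged across arrays of the same protein sequence at different concentrations or buffers and across linkers.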
# [2] = target: Fuc(a1-2)[GalNAc(a1-3)]Gal
# Method in brief: as §1
# [3] = target: Fuc(a1-2)[GalNAc(a1-3)]Gal(b1-3)GalNAc(a1-3)[Fuc(a1-2)]Gal(b1-4)GlcNAc
# Method in brief: as §1
# [4] = target: Fuc(a1-2)[GalNAc(a1-3)]Gal(b1-3)GalNAc(b1-3)Gal(a1-4)Gal(b1-4)Glc
# Method in brief: as §1
# [5] = target: Fuc(a1-2)[GalNAc(a1-3)]Gal(b1-3)GlcNAc
# Method in brief: as §1
# [6] = target: Fuc(a1-2)[GalNAc(a1-3)]Gal(b1-3)GlcNAc(b1-2)Man(a1-3)[Fuc(a1-2)[GalNAc(a1-3)]Gal(b1-3)GlcNAc(b1-2)Man(a1-6)]Man(b1-4)GlcNAc(b1-4)GlcNAc
# Method in brief: as §1
# [7] = target: Fuc(a1-2)[GalNAc(a1-3)]Gal(b1-3)GlcNAc(b1-2)Man(a1-3)[Fuc(a1-2)[GalNAc(a1-3)]Gal(b1-3)GlcNAc(b1-2)Man(a1-6)]Man(b1-4)GlcNAc(b1-4)[Fuc(a1-6)]GlcNAc
# Method in brief: as §1
# [8] = target: Fuc(a1-2)[GalNAc(a1-3)]Gal(b1-3)GlcNAc(b1-3)GalNAc
# Method in brief: as §1
# [9] = target: Fuc(a1-2)[GalNAc(a1-3)]Gal(b1-3)GlcNAc(b1-6)GalNAc
# Method in brief: as §1
# [10] = target: Fuc(a1-2)[GalNAc(a1-3)]Gal(b1-4)Glc
# Method in brief: as §1
# [11] = target: Fuc(a1-2)[GalNAc(a1-3)]Gal(b1-4)GlcNAc
# Method in brief: as §1
# [12] = target: Fuc(a1-2)[GalNAc(a1-3)]Gal(b1-4)GlcNAc(b1-2)Man
# Method in brief: as §1
# [13] = target: Fuc(a1-2)[GalNAc(a1-3)]Gal(b1-4)GlcNAc(b1-2)Man(a1-3)[Fuc(a1-2)[GalNAc(a1-3)]Gal(b1-4)GlcNAc(b1-2)Man(a1-6)]Man(b1-4)GlcNAc(b1-4)GlcNAc
# Method in brief: as §1
# [14] = target: Fuc(a1-2)[GalNAc(a1-3)]Gal(b1-4)GlcNAc(b1-2)Man(a1-3)[Fuc(a1-2)[GalNAc(a1-3)]Gal(b1-4)GlcNAc(b1-2)Man(a1-6)]Man(b1-4)GlcNAc(b1-4)[Fuc(a1-6)]GlcNAc
# Method in brief: as §1
# [15] = target: Fuc(a1-2)[GalNAc(a1-3)]Gal(b1-4)GlcNAc(b1-3)Gal(b1-4)GlcNAc
# Method in brief: as §1
# [16] = target: Fuc(a1-2)[GalNAc(a1-3)]Gal(b1-4)GlcNAc(b1-3)Gal(b1-4)GlcNAc(b1-3)Gal(b1-4)GlcNAc
# Method in brief: as §1
# [17] = target: Fuc(a1-2)[GalNAc(a1-3)]Gal(b1-4)GlcNAc(b1-3)GalNAc
# Method in brief: as §1
# [18] = target: Fuc(a1-2)[GalNAc(a1-3)]Gal(b1-4)GlcNAc(b1-3)[Fuc(a1-2)[GalNAc(a1-3)]Gal(b1-4)GlcNAc(b1-6)]GalNAc
# Method in brief: as §1
# [19] = target: Fuc(a1-2)[GalNAc(a1-3)]Gal(b1-4)GlcNAc(b1-6)GalNAc
# Method in brief: as §1
# [20] = target: Fuc(a1-2)[GalNAc(a1-3)]Gal(b1-4)[Fuc(a1-3)]GlcNAc
# Method in brief: as §1
# [21] = target: Fuc(a1-2)[GalNAc(a1-3)]Gal(b1-4)[Fuc(a1-3)]GlcNAc(b1-3)GalNAc
# Method in brief: as §1
# [22] = target: Fuc(a1-2)[GalNAc(a1-4)]Gal(b1-4)GlcNAc
# Method in brief: as §1
# [23] = target: Fuc(a1-2)[GalNAc(b1-3)]Gal
# Method in brief: as §1
# Fuc(a1-3)GlcNAc = target: Fuc(a1-3)GlcNAc
# Method in brief: as §1
# [24] = target: Fuc(a1-3)[Gal(b1-4)]Glc6S
# Method in brief: as §1
# [25] = target: Fuc(a1-3)[Gal(b1-4)]GlcNAc
# Method in brief: as §1
# [26] = target: Fuc(a1-3)[Gal(b1-4)]GlcNAc(b1-2)Man
# Method in brief: as §1
# [27] = target: Fuc(a1-3)[Gal(b1-4)]GlcNAc(b1-2)Man(a1-3)[Fuc(a1-3)[Gal(b1-4)]GlcNAc(b1-2)Man(a1-6)]Man(b1-4)GlcNAc(b1-4)GlcNAc
# Method in brief: as §1
# [28] = target: Fuc(a1-3)[Gal(b1-4)]GlcNAc(b1-2)Man(a1-3)[Fuc(a1-3)[Gal(b1-4)]GlcNAc(b1-2)Man(a1-6)]Man(b1-4)GlcNAc(b1-4)[Fuc(a1-6)]GlcNAc
# Method in brief: as §1
# [29] = target: Fuc(a1-3)[Gal(b1-4)]GlcNAc(b1-3)Gal(b1-3)[Fuc(a1-4)]GlcNAc
# Method in brief: as §1
# [30] = target: Fuc(a1-3)[Gal(b1-4)]GlcNAc(b1-3)Gal(b1-4)[Fuc(a1-3)]GlcNAc
# Method in brief: as §1
# [31] = target: Fuc(a1-3)[Gal(b1-4)]GlcNAc(b1-3)Gal(b1-4)[Fuc(a1-3)]GlcNAc(b1-3)Gal(b1-4)[Fuc(a1-3)]GlcNAc
# Method in brief: as §1
# [32] = target: Fuc(a1-3)[Gal(b1-4)]GlcNAc(b1-3)GalNAc
# Method in brief: as §1
# [33] = target: Fuc(a1-3)[Gal(b1-4)]GlcNAc(b1-6)GalNAc
# Method in brief: as §1
# [34] = target: Fuc(a1-3)[Gal(b1-4)]GlcNAc(b1-6)[Gal(b1-3)GlcNAc(b1-3)]Gal(b1-4)Glc
# Method in brief: as §1
# [35] = target: Fuc(a1-3)[Gal(b1-4)]GlcNAc6S
# Method in brief: as §1
# [36] = target: Fuc(a1-3)[Gal3S(b1-4)]Glc
# Method in brief: as §1
# [37] = target: Fuc(a1-3)[Gal3S(b1-4)]GlcNAc
# Method in brief: as §1
binder,measurement,setting,value
B1,glycan array binding signal (z-score),[1],0.359
same,glycan array binding signal (z-score),[2],-0.372
same,glycan array binding signal (z-score),[3],-0.115
same,glycan array binding signal (z-score),[4],-0.468
same,glycan array binding signal (z-score),[5],-0.496
same,glycan array binding signal (z-score),[6],-0.285
same,glycan array binding signal (z-score),[7],-0.136
same,glycan array binding signal (z-score),[8],0.521
same,glycan array binding signal (z-score),[9],-0.18
same,glycan array binding signal (z-score),[10],-0.312
same,glycan array binding signal (z-score),[11],-0.438
same,glycan array binding signal (z-score),[12],-0.499
same,glycan array binding signal (z-score),[13],-0.581
same,glycan array binding signal (z-score),[14],-0.434
same,glycan array binding signal (z-score),[15],-0.622
same,glycan array binding signal (z-score),[16],0.178
same,glycan array binding signal (z-score),[17],-0.594
same,glycan array binding signal (z-score),[18],-0.48
same,glycan array binding signal (z-score),[19],-0.404
same,glycan array binding signal (z-score),[20],0.426
same,glycan array binding signal (z-score),[21],0.187
same,glycan array binding signal (z-score),[22],-0.17
same,glycan array binding signal (z-score),[23],-0.266
same,glycan array binding signal (z-score),Fuc(a1-3)GlcNAc,-0.063
same,glycan array binding signal (z-score),[24],-0.088
same,glycan array binding signal (z-score),[25],-0.428
same,glycan array binding signal (z-score),[26],0.187
same,glycan array binding signal (z-score),[27],-0.26
same,glycan array binding signal (z-score),[28],-0.098
same,glycan array binding signal (z-score),[29],-0.084
same,glycan array binding signal (z-score),[30],-0.237
same,glycan array binding signal (z-score),[31],0
same,glycan array binding signal (z-score),[32],-0.329
same,glycan array binding signal (z-score),[33],-0.05
same,glycan array binding signal (z-score),[34],-0.388
same,glycan array binding signal (z-score),[35],0.096
same,glycan array binding signal (z-score),[36],-0.714
same,glycan array binding signal (z-score),[37],0.719
